ChEMBL document CHEMBL4888484, “Replenishing the malaria drug discovery pipeline: Screening and hit evaluation of the MMV Hit Generation Library 1 (HGL1) against asexual blood stage Plasmodium falciparum ,using a nano luciferase reporter read-out” (2022)
In all, about 150,000 compounds went through this assay and about 540 (0.36%) showed an effect of 50% or more. Some of the results follow.

These compounds were tested on Plasmodium falciparum (assay: Primary screen in NF54 nanoGlo assay, in single point, at 2uM, 72h; a lower Z score goes with more inhibition). Settings: timepoint 72 hour.
Type: functional, Erythrocyte
`O=C(Cc1cc(F)c(F)cc1F)NS(=O)(=O)CCC(F)(F)F` was tested, and the “% Inhibition” value was 5% and the Z score was -0.9. In the case of `Cc1cccc([C@@H](C)CNC(=O)NCCC2(C)OCCO2)c1`, the “% Inhibition” value is reported as -6% and the Z score is reported as 0.84. `Cc1conc1C(=O)N1CCCC[C@@]12CCOC2` was tested, and the “% Inhibition” value was -12% and the Z score was 1.28. In the case of `COc1ccc([C@H]2C[C@H](NC(=O)c3cc(O)ccn3)C2)cc1F`, the “% Inhibition” value is reported as -14% and the Z score is reported as 2.83. For `COc1cc(-c2ccc3c(c2)OCCO3)ncn1`, the “% Inhibition” value was -9% and the Z score was 0.88. With `O=C(NC1CCCCC1)c1ccc(-n2cnnn2)cc1` the “% Inhibition” value was 7% and the Z score was -0.9. `COC(C)(C)C(=O)N1CC[C@]23C(=O)N(CC(=O)NCCCOc4cccc(c4)[C@H]12)c1ccccc13` was tested, and the “% Inhibition” value was -4% and the Z score was 0.42. For `Cc1cccc(N2CCC[C@H](c3cn[nH]c3)C2)n1`, the “% Inhibition” value was -4% and the Z score was 0.37. In the case of `CC(C)N1CCC(N2CCN(c3cnc4ccccc4n3)C[C@@H]2CCO)CC1`, the “% Inhibition” value is reported as 4% and the Z score is reported as -0.58. With `COCCN(CCOc1ccccc1F)Cc1cccc(OC)c1O[C@@H](C)C(=O)O` the “% Inhibition” value was 0% and the Z score was -0.05. With `Cc1cc(C(=O)Nc2cc(Cl)ccc2C)c2c(C)nn(-c3cccc(F)c3)c2n1` the “% Inhibition” value was -10% and the Z score was 1.02. In the case of `COc1ncc(NC(=O)Cc2ccc(F)cc2)cn1`, the “% Inhibition” value is reported as -6% and the Z score is reported as 1.23. For `CCN(CC)CCCNC(=O)C1CCN(c2c(NC(C)=O)c(C)nn2-c2ccccc2)CC1`, the “% Inhibition” value was -8% and the Z score was 1.14. With `CCN1C(=O)COc2ccc(-c3noc(-c4cnccn4)n3)cc21` the “% Inhibition” value was 7% and the Z score was -0.79. With `CCc1nc(CNC(=O)NCCc2nc(C)cs2)cs1` the “% Inhibition” value was 34% and the Z score was -3.82. `Clc1ccc([C@H](CNc2nn3cnnc3c3ccccc23)N2CCCCC2)cc1` was tested, and the “% Inhibition” value was -8% and the Z score was 1.16. For `O=C(CN(CCO)Cc1ccsc1)Nc1ccnn1C1CCCC1`, the “% Inhibition” value was -4% and the Z score was 0.65. For `Cc1c(Cl)cccc1-n1ccn2c(=O)n(Cc3cccc(F)c3)nc2c1=O`, the “% Inhibition” value was -15% and the Z score was 1.8. With `CCc1c(-c2ccc(N(C)C)nc2)cnn1C` the “% Inhibition” value was -5% and the Z score was 1.08. In the case of `CC(=O)c1ccc(NC(=O)c2cc(C)nc(O)c2)cc1Cl`, the “% Inhibition” value is reported as -2% and the Z score is reported as 0.27. For `CCc1cccc(NC(=O)N2CCN(c3nc4ccncc4n(CC(C)C)c3=O)CC2)c1`, the “% Inhibition” value was -4% and the Z score was 0.35. `CN(c1ccccc1NCCCS(C)(=O)=O)C1CCCC1` was tested, and the “% Inhibition” value was 0% and the Z score was 0.04. In the case of `O=C1CCN(Cc2cccs2)CCN1CC1CCCCC1`, the “% Inhibition” value is reported as -6% and the Z score is reported as 0.89. In the case of `O=C(CC1(C(=O)O)CCCC1)Nc1cc(N2CCCC2=O)ccc1F`, the “% Inhibition” value is reported as 2% and the Z score is reported as -0.36. `CCCn1cc(N[C@@H](C)c2nc(C(C)C)no2)cn1` was tested, and the “% Inhibition” value was -12% and the Z score was 1.7. With `COc1cc2c(cc1C(=O)N[C@@H]1[C@@H]3CCO[C@@H]3[C@H]1NC(C)=O)CCC2` the “% Inhibition” value was 6% and the Z score was -0.79. In the case of `Cc1cc2occ(CC(=O)NCc3ccccn3)c2c(C)c1Cl`, the “% Inhibition” value is reported as 8% and the Z score is reported as -1.05. In the case of `CCOC(=O)C[C@H](N)c1ccc(C)cc1C`, the “% Inhibition” value is reported as -4% and the Z score is reported as 0.73. In the case of `CCc1nc(C(=O)Nc2ccc(CN3CCOCC3)cc2)c[nH]1`, the “% Inhibition” value is reported as 2% and the Z score is reported as -0.28. `Cc1n[nH]c(C)c1CC(=O)Nc1ccc2c(c1)N(C)CCO2` was tested, and the “% Inhibition” value was -10% and the Z score was 1. `CCOc1ccccc1NC(=O)N1CCC(N2CCN(Cc3ccccc3)C(=O)C2=O)CC1` was tested, and the “% Inhibition” value was -10% and the Z score was 0.94. In the case of `Cc1nn(C)cc1NC(=O)CC1CC2CCC1C2` (stereo not drawn), the “% Inhibition” value is reported as 2% and the Z score is reported as -0.29. `CC[C@H]1CN(Cc2ccc(CO)o2)Cc2ccc(Cl)cc2O1` was tested, and the “% Inhibition” value was -6% and the Z score was 1.11. `Cc1cccc(S(=O)(=O)N2CCc3nc(N4CCCCC4)nc(Oc4ccc(F)c(C)c4)c3C2)c1` was tested, and the “% Inhibition” value was -2% and the Z score was 0.22. In the case of `O=C(O)c1cc(-n2c(=O)[nH]c3ccccc32)ccc1O`, the “% Inhibition” value is reported as -1% and the Z score is reported as 0.19. `Cc1cncc(Br)c1NC(=O)c1cc(CN(C)C)on1` was tested, and the “% Inhibition” value was -7% and the Z score was 1.37. In the case of `Cc1cc(C(=O)NCC[C@H](O)c2cc(C)oc2C)no1`, the “% Inhibition” value is reported as -5% and the Z score is reported as 1.06. In the case of `O[C@H]1CCN(c2cc([C@H]3C[C@H](Nc4ncnc5sccc45)C3)ncn2)C1`, the “% Inhibition” value is reported as -11% and the Z score is reported as 1.32. For `N#Cc1ccccc1OC1CCC(NC(=O)N[C@H]2CCCC23CCOCC3)CC1` (stereo partly drawn), the “% Inhibition” value was -15% and the Z score was 2. In the case of `CC(CC1CCCN1C(=O)OC(C)(C)C)NCC(=O)NCC1CC1` (stereo not drawn), the “% Inhibition” value is reported as -5% and the Z score is reported as 0.68. With `CC(C)Oc1ccc(S(=O)(=O)NCc2cc(C(C)C)no2)cc1` the “% Inhibition” value was 1% and the Z score was -0.14. `CC(C)(C)OC(=O)COC(=O)[C@@H]1CCCCN1Cc1ccccn1` was tested, and the “% Inhibition” value was -14% and the Z score was 2.16. With `CN(Cc1cccnc1)Cc1ccc[nH]1` the “% Inhibition” value was -10% and the Z score was 1.11. `COc1cccc(NC(=O)NCCn2nc(C(F)(F)F)cc2C2CC2)c1OC` was tested, and the “% Inhibition” value was -4% and the Z score was 0.53. With `C=CCOc1ccc(Cl)cc1CN1CCC2(CC1)CNC(=O)C2` the “% Inhibition” value was -18% and the Z score was 1.78. For `C[C@@H](C(=O)NCC1CCN(C(=O)C2CC=CC2)CC1)n1cccn1`, the “% Inhibition” value was -2% and the Z score was 0.2. For `CCN(CC)c1onc(-c2ccccc2)c1CN(CC(C)C)C(=O)CC(C)C`, the “% Inhibition” value was 7% and the Z score was -0.75. With `O=C(NCC1CC(F)(F)C1)[C@H]1CC12CC2` the “% Inhibition” value was -9% and the Z score was 1.15. `CCc1nc2cc(N)cc(C(=O)NCc3ccc(C)o3)c2n1CCCOC` was tested, and the “% Inhibition” value was -1% and the Z score was 0.12. With `Cc1n[nH]c(C)c1CC(=O)N[C@@H]1C[C@H]1c1c(F)cccc1Cl` the “% Inhibition” value was -16% and the Z score was 2.94. `C=CCN(Cc1ccc(F)cc1)C(=O)CCn1ccc(=O)[nH]c1=O` was tested, and the “% Inhibition” value was 16% and the Z score was -2.03. With `Cc1ccc(CNC(=O)c2ccc3nn(CC(=O)Nc4cc(C)ccc4C)c(=O)n3c2)cc1` the “% Inhibition” value was -3% and the Z score was 0.28. With `CCCCN1CCn2nc(CN[C@H]3CCc4ccc(OC)cc4C3)cc2C1` the “% Inhibition” value was -15% and the Z score was 2.92. For `C[C@@H](NC(=O)c1ccc2c(c1)OCO2)c1c(-c2ccc(F)cc2)noc1C(=O)O`, the “% Inhibition” value was 0% and the Z score was -0.03.
